Source: the supplement of paper PMC8728848
The other results are listed elsewhere or left out.

Experiments:
Test in all cases: glycan array binding signal (z-score within array); higher = stronger binding
Conditions in all cases: glycan notation: IUPAC condensed, linker removed
[1] = molecular target: Gal(b1-4)GlcNAc(b1-3)Gal(b1-4)GlcNAc(b1-3)[Gal(b1-4)GlcNAc(b1-3)Gal(b1-4)GlcNAc(b1-6)]GalNAc
How it was run: (§1)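 Glycan array data came from 3228 arrays in the Consortium for Functional Glycomics database, and only arrays with an available protein sequence were kept. Glycan names were put into IUPAC-condensed notation, and columns mapping to the same glycan were averaged. The binding signal is a within-array Z-score, averaged across arrays of one protein sequence run at different concentrations or buffers and across linkers. A negative Z-score can be read as non-binding.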

[2] = molecular target: Gal(b1-4)GlcNAc(b1-3)Gal(b1-4)GlcNAc(b1-6)[Gal(b1-3)]GalNAc
How it was run: as §1

[3] = molecular target: Gal(b1-4)GlcNAc(b1-3)Gal(b1-4)[Fuc(a1-3)]GlcNAc(b1-3)Gal(b1-4)[Fuc(a1-3)]GlcNAc
How it was run: as §1

[4] = molecular target: Gal(b1-4)GlcNAc(b1-3)GalNAc
How it was run: as §1

[5] = molecular target: Gal(b1-4)GlcNAc(b1-3)[Fuc(a1-3)GlcNAc(b1-6)]Gal(b1-4)Glc
How it was run: as §1

[6] = molecular target: Gal(b1-4)GlcNAc(b1-3)[Gal(b1-4)GlcNAc(b1-6)]Gal(b1-4)GlcNAc
How it was run: as §1

[7] = molecular target: Gal(b1-4)GlcNAc(b1-3)[GlcNAc(b1-6)]Gal(b1-4)GlcNAc
How it was run: as §1

[8] = molecular target: Gal(b1-4)GlcNAc(b1-6)Gal(b1-4)GlcNAc
How it was run: as §1

[9] = molecular target: Gal(b1-4)GlcNAc(b1-6)GalNAc
How it was run: as §1

[10] = molecular target: Gal(b1-4)GlcNAc(b1-6)[Gal(b1-3)]GalNAc
How it was run: as §1

[11] = molecular target: Gal(b1-4)GlcNAc(b1-6)[Gal(b1-4)GlcNAc(b1-3)]GalNAc
How it was run: as §1

[12] = molecular target: Gal(b1-4)GlcNAc6P
How it was run: as §1

[13] = molecular target: Gal(b1-6)Gal
How it was run: as §1

[14] = molecular target: Gal3S(b1-3)GalNAc
How it was run: as §1

[15] = molecular target: Gal3S(b1-3)GlcNAc
How it was run: as §1

B1: a L Fucosidase (Streptosporangium roseum), D2B1P1_STRRD (protein)
chain: MRRKLLLVPAVGLLVIGSIFATQPVASADTPPVYEPTVESLNSHPVPQWFNDDKFGIFIHWGAYSVPAWGPRGSYAEWYGNYMNAGGSATNAHHKATYGQDFNYDAFLQQWKAEKFDPADWVKLFKDAGAKYFVLTSKHHEGMALWDSKSSGRDSVDLGPGRDLAKELFDAARKDEAKLKAGFYYSLYEWYNPAYTGRPATNPYTGAEIPYTGAPGGGDYVKDYMLPQMRELIDGYDPDIIWCDGQWEKPASYWNTAGVIADYYNKALNSGKEVAVANRCKIQSGNLDSPELDFQTPEYTVKPDIDPVKWESSRGIAHSYGYNQNEPEEDHLTSDQLVDSLVDIVSKNGNLLLDIGPKADGTIPEIQRQRLLDIGAWLKANGEAIYGTTYWNRAEEKGGPDDVRYTAKDATLYATALKWPGEQLTLGADLPVDHSTRITMLGSGARLSWSRDEQGRVVVNTPQEAGKHAYVFKIETPGVRSLLRTSSSLAKEIAPGRTISGELTVTNPGKRHTPATKLSLTVPQGWTATLGAPRVRPLGPGESVKVPISVSAPEGVAPAPYTLGLYQRTGRMGTTTALPLTVNRPNLSLGKPATQKSTGYDAPASRAVDGNTGGDWSAGSTTHTAEPEKQAWWQVDLGASARLDSVDVWNRLDCCADRLKDFWVMASDQPFTTDDLDQARTAPGVTAVHVGEQAGSPSKVKLPEGTRGRYVRIQLASPSNPLSLAEVQVRGSMARPNLSLGKPATQKSTGYDAPASRAVDGNTGGDWSAGSTTHTAEPEKQAWWQVDLGASARLDSVDVWNRLDCCADRLKDFWVMASDQPFTTDDLDQARTAPGVTAVHVGEQAGSPSKVKLPEGTRGRYVRIQLASPSNPLSLAEVQVRLEHHHHHHS
glycan array binding signal (z-score) [1]: -0.245 | glycan array binding signal (z-score) [2]: 0.615 | glycan array binding signal (z-score) [3]: -0.36 | glycan array binding signal (z-score) [4]: -0.418 | glycan array binding signal (z-score) [5]: -0.197 | glycan array binding signal (z-score) [6]: -0.56 | glycan array binding signal (z-score) [7]: 0.31 | glycan array binding signal (z-score) [8]: -0.297 | glycan array binding signal (z-score) [9]: -0.428 | glycan array binding signal (z-score) [10]: -0.345 | glycan array binding signal (z-score) [11]: -0.266 | glycan array binding signal (z-score) [12]: -0.219 | glycan array binding signal (z-score) [13]: -0.369 | glycan array binding signal (z-score) [14]: -0.48 | glycan array binding signal (z-score) [15]: -0.339
